Results from PubChem BioAssay (NCATS).
Several values for one entry are separate records, joined by “and”; a condition that tells them apart may be missing. Equal entries are not always repeated. The shares of active, inactive and inconclusive entries below differ from those in the screen. For some assays here: A potency beside an inconclusive call is a rough fit, not a confirmed value. Activity calls are given as the source filed them. Calls come from the whole dose curve; as a rule, active = well fitted curve in the direction sought with a large enough effect; inconclusive = small, poorly fitted or top-dose-only effect, or another doubt; inactive = no such curve, though single readings can be large; an effect the other way counts as inactive or inconclusive.

What was measured:
[1] = qHTS of pediatric cancer cell lines to identify multiple opportunities for drug repurposing: Primary screen for DAOY cells (AID 1347090); conditions: DAOY medulloblastoma viability, CellTiter-Glo luminescence, 48 h; activity change, negative = cytotoxic: at 46 µM (top of the series); note: nearly all actives have a fitted effect of over 55% in size
How it was run: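 Viability measured as metabolically active cells via CellTiter-Glo luminescence following 48 hours of compound exposure, 11-point dilutions in confirmatory testing. 500-1,000 cells/well plated 5 hours before dosing; controls were DMSO and 2.3 µM bortezomib.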

[2] = Quantitative High-Throughput drug screen in 47 multiple myeloma cell lines against the NCATS MIPE library collection: Karpas417_ECACC cell viability assay (AID 1918961); conditions: Karpas417 myeloma viability, CellTiter-Glo ATP luminescence, 48 h; viability (% of DMSO): at 45.8 µM (top of the series)
How it was run: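 Viability readout: CellTiter-Glo luminescence following 5 min room-temperature incubation with reagent. Prior exposure: 48 h, 37C, humidified 5% CO2, 500 cells per well.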

[3] = Quantitative High-Throughput drug screen in 47 multiple myeloma cell lines against the NCATS MIPE library collection: KHM11_PLB cell viability assay (AID 1918962); conditions: KHM11 myeloma cell viability, CellTiter-Glo ATP luminescence, 48 h; viability, % of DMSO control: at 45.8 µM (top of the series); note: nearly all actives have a fitted effect of over 35% in size
How it was run: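 We plated 500 myeloma cells per well, pinned in MIPE 4.0 compounds, and incubated for 48 hours at 37C. ATP was then quantified with CellTiter-Glo, with DMSO and media-only wells defining 100% and 0%.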

[4] = Quantitative High-Throughput drug screen in 47 multiple myeloma cell lines against the NCATS MIPE library collection: OCIMY1_PLB cell viability assay (AID 1918979); note: nearly all actives have a fitted effect of over 35% in size
How it was run: (§1)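 Cells were exposed to library compounds for 48 hours, after which ATP was measured by CellTiter-Glo. Signal was taken as median relative luminescence units.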

[5] = Quantitative High-Throughput drug screen in 47 multiple myeloma cell lines against the NCATS MIPE library collection: KMS34_JCRB cell viability assay (AID 1918985); note: nearly all actives have a fitted effect of over 40% in size
How it was run: as §1

[6] = Quantitative High-Throughput drug screen in 47 multiple myeloma cell lines against the NCATS MIPE library collection: SKMM1_PLB cell viability assay (AID 1919863); conditions: SKMM1 myeloma viability, CellTiter-Glo ATP, 48 h; viability: stronger effect = lower value; note: nearly all actives have a fitted effect of over 35% in size
How it was run: as §1

HaCat = experiment: Cytotoxic Profiling of Annotated Libraries Using Quantitative High-Throughput Screening (AID 1296008); conditions: Five cell lines viability, CellTiter-Glo ATP luminescence, 48-72 h; max response: stronger effect = lower value; note: nearly all actives have a fitted effect of over 60% in size; for max response: % is set by controls: 0 for no effect and ±100 for the full control effect
How it was run: (§2)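 Cells exposed to compounds for 48 or 72 hr at 37 degrees Celsius. Viability read as ATP-coupled luminescence with CellTiter-Glo after 10 min at room temperature.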

NIH3T3 = experiment: as above; conditions: Five cell lines viability, CellTiter-Glo ATP luminescence, 48-72 h; max response: stronger effect = lower value
How it was run: as §2

MCC-13 = experiment: qHTS assay to identify novel small-molecules to repurpose for Merkel cell carcinoma treatment (AID 1296009); conditions: MCC and control cell lines, CellTiter-Glo viability, 72 h; series mostly up to 46 µM; note: nearly all actives have a fitted effect of over 60% in size; for activity change, negative = cytotoxicity: % is set by controls: 0 for no effect and ±100 for the full control effect
How it was run: (§3)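 Dose-response viability screen; 72 hr exposure at 37 degree celsius; CellTiter-Glo added, 10 min room temperature, luminescence read; RLUs scaled between no-cell and DMSO wells.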

MKL-1 = experiment: as above; conditions: MCC and control cell lines, CellTiter-Glo viability, 72 h; activity change, negative = cytotoxicity: at 46 µM (top of the series)
How it was run: as §3

WaGa = experiment: as above; conditions: MCC and control cell lines, CellTiter-Glo viability, 72 h; series mostly up to 46 µM
How it was run: as §3

SKOV3 = experiment: Primary qHTS to identify gynecologic anti-cancer compounds using libraries of approved drugs and bioactive compounds (AID 1345084); conditions: Gynecologic cancer cell panel viability, ATPlite luminescence, 48 h; series mostly up to 57.5 µM; note: nearly all actives have a fitted effect of over 55% in size
How it was run: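 ATP-based viability (ATPlite), 1,000 cells/well, 16 h pre-incubation, 48 h compound at 37 C, 5% CO2, 15 min RT before read.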

[7] = NS1 protein of Zika virus - qHTS assay to identify small molecule inhibitors in human HEK 293 cells (AID 1347053); note: nearly all actives have a fitted effect of over 55% in size
How it was run: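 In this cell-based screen, HEK 293 cultures received compound for one hour before Zika MR766 at MOI = 0.5. NS1 was quantified 24 hours later by TR-FRET, normalized to virus-free wells and infected wells.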

[8] = qHTS of pediatric cancer cell lines to identify multiple opportunities for drug repurposing: Primary screen for BT-37 cells (AID 1347094)
How it was run: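 Following a 5-hour attachment period, cells at 500-1,000/well received compounds and were cultured for 48 hours. CellTiter-Glo was added and luminescence read to estimate viable, metabolically active cells.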

[9] = qHTS of pediatric cancer cell lines to identify multiple opportunities for drug repurposing: Primary screen for U-2 OS cells (AID 1347096); note: nearly all actives have a fitted effect of over 50% in size
How it was run: (§4)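 Viability after 48 h compound treatment at 37C, 500-1,000 cells/well, read as ATP luminescence with CellTiter-Glo. Primary screens used 11-point (MIPE, 0.78 nM-46 µM) or 8-point (NPC, 0.59 nM-46 µM) final concentrations; follow-up screens used 11-point dilutions.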

[10] = qHTS of pediatric cancer cell lines to identify multiple opportunities for drug repurposing: Primary screen for LAN-5 cells (AID 1347100)
How it was run: as §4

[11] = Quantitative High-Throughput drug screen in 47 multiple myeloma cell lines against the NCATS MIPE library collection: UTMC2_PLB cell viability assay (AID 1919868); conditions: CellTiter-Glo ATP luminescence, 48 h; viability (% of DMSO control): at 45.8 µM (top of the series); note: nearly all actives have a fitted effect of over 55% in size
How it was run: as §1

MKL-2 = experiment: qHTS assay to identify novel small-molecules to repurpose for Merkel cell carcinoma treatment (AID 1296009); conditions: MCC and control cell lines, CellTiter-Glo viability, 72 h; activity change, negative = cytotoxicity: at 46 µM (top of the series); note: nearly all actives have a fitted effect of over 60% in size; for activity change, negative = cytotoxicity: % is set by controls: 0 for no effect and ±100 for the full control effect
How it was run: as §3

KB-3-1 = experiment: Cytotoxic Profiling of Annotated Libraries Using Quantitative High-Throughput Screening (AID 1296008); conditions: Five cell lines viability, CellTiter-Glo ATP luminescence, 48-72 h; max response: stronger effect = lower value; note: nearly all actives have a fitted effect of over 60% in size; for max response: % is set by controls: 0 for no effect and ±100 for the full control effect
How it was run: as §2

UISO = experiment: qHTS assay to identify novel small-molecules to repurpose for Merkel cell carcinoma treatment (AID 1296009); conditions: MCC and control cell lines, CellTiter-Glo viability, 72 h; activity change, negative = cytotoxicity: at 46 µM (top of the series); note: nearly all actives have a fitted effect of over 60% in size
How it was run: as §3
Potency is the fitted concentration of half-maximal effect; tags give direction and shape of the fitted curve.

Cc1cc(Nc2cc(N3CCN(C)CC3)nc(Sc3ccc(NC(=O)C4CC4)cc3)n2)n[nH]1
inconclusive: Potency [1] 29.6 µM [cytotoxic, single point] | Potency [4] 18.7 µM [cytotoxic, partial curve] | Potency (HaCat) 1.3 µM [inhibitor, full curve] | Potency (MCC-13) 2.09 µM [inhibitor, full curve] | Potency (MKL-1) 0.372 µM [inhibitor, full curve] | Potency (WaGa) 0.296 µM [inhibitor, full curve] | Potency (SKOV3) 39.8 µM [cytotoxic, single point]
active: Potency [2] 7.43 µM | Potency [3] 1.32 µM | Potency [5] 14.8 µM | Potency [6] 16.6 µM | Potency (NIH3T3) 16.6 µM and 20.6 µM

Cc1cc(Nc2cc(NC(=O)c3c(Cl)cccc3Cl)ccn2)nc(N)n1
inconclusive: Potency [4] 37.2 µM [cytotoxic, single point] | Potency [6] 33.2 µM [cytotoxic, partial curve, poor fit] | Potency (HaCat) 3.72 µM [inhibitor, full curve, poor fit] | Potency (MCC-13) 0.935 µM [inhibitor, full curve] | Potency (MKL-1) 18.7 µM [inhibitor, partial curve, poor fit] | Potency (MKL-2) 37.2 µM [inhibitor, single point]
active: Potency [7] 2.35 µM | Potency [8] 0.544 µM | Potency [9] 18.7 µM | Potency [10] 1.87 µM | Potency [2] 2.64 µM | Potency [3] 8.33 µM | Potency [5] 1.18 µM | Potency [11] 2.96 µM

CC(=O)NC(C)c1ccc(Oc2ccc(OC(C)C)cc2)cc1 (configuration not stated)
inconclusive: Potency [1] 23.5 µM [cytotoxic, single point] | Potency [8] 24.3 µM [cytotoxic, partial curve] | Potency [10] 18.7 µM [cytotoxic, single point] | Potency [2] 0.0118 µM [cytotoxic, full curve, poor fit] | Potency [3] 2.96 µM [cytotoxic, full curve, poor fit] | Potency [5] 11.8 µM [cytotoxic, partial curve] | Potency [6] 14.8 µM [cytotoxic, partial curve, poor fit] | Potency [11] 10.5 µM [cytotoxic, single point] | Potency (NIH3T3) 29.6 µM [inhibitor, single point] | Potency (MKL-2) 23.5 µM [inhibitor, single point] | Potency (UISO) 20.9 µM [inhibitor, single point] | Potency (WaGa) 20.9 µM [inhibitor, single point]
inactive: max response (KB-3-1) 7.61% | Potency (MKL-1)

O=c1[nH]nc(Sc2ncc([N+](=O)[O-])s2)n1-c1ccc2c(c1)OCCO2
active: Potency [7] 9.35 µM | Potency [1] 9.35 µM | Potency [8] 21.7 µM | Potency [9] 11.8 µM | Potency [3] 2.09 µM | Potency [4] 3.72 µM | Potency (HaCat) 18.7 µM | Potency (MKL-2) 5.26 µM

Cn1c(Nc2ccc(C(F)(F)F)cc2)nc2cc(Oc3ccnc(-c4ncc(C(F)(F)F)[nH]4)c3)ccc21
inconclusive: Potency [7] 37.2 µM [inhibitor, single point] | Potency [4] 18.7 µM [cytotoxic, partial curve] | Potency [5] 14.8 µM [cytotoxic, partial curve] | Potency (NIH3T3) 37.2 µM [inhibitor, single point] | Potency (MCC-13) 18.7 µM [inhibitor, partial curve] | Potency (MKL-2) 4.69 µM [inhibitor, full curve]
active: Potency [1] 18.7 µM | Potency [8] 2.43 µM | Potency [9] 14.8 µM | Potency [2] 4.18 µM | Potency [3] 18.7 µM | Potency [11] 16.6 µM | Potency (KB-3-1) 11.8 µM | Potency (WaGa) 18.7 µM

C[C@@H]1CN(CC(=O)Nc2ccc3c(c2)Cc2cccc(-c4cc(=O)cc(N5CCOCC5)o4)c2S3)C[C@H](C)O1
active: Potency [7] 18.7 µM | Potency [11] 6.62 µM
inactive: Potency (MCC-13)
inconclusive: Potency [1] 18.7 µM [cytotoxic, partial curve] | Potency [8] 21.7 µM [cytotoxic, single point] | Potency [9] 9.35 µM [cytotoxic, partial curve, poor fit] | Potency [2] 26.4 µM [cytotoxic, partial curve, poor fit] | Potency [3] 14.8 µM [cytotoxic, partial curve, poor fit] | Potency [4] 18.7 µM [cytotoxic, partial curve] | Potency [5] 8.33 µM [cytotoxic, partial curve] | Potency [6] 14.8 µM [cytotoxic, partial curve, poor fit] | Potency (NIH3T3) 10.5 µM [inhibitor, full curve] | Potency (MKL-2) 11.8 µM [inhibitor, partial curve] | Potency (UISO) 29.6 µM [inhibitor, single point] | Potency (WaGa) 18.7 µM [inhibitor, single point]
